Experimental data as given in the supplement of paper PMC4967469.
IC50 is the fitted dose that halves viability relative to control wells, and lower means more sensitive; fits outside the tested doses are given as limits. AUC sums up the same curve from the lowest dose to the 256-fold higher top dose; it is 1 without any effect and falls as sensitivity rises. For some of these results: The top dose, if marked as inferred, is not printed in the source and was worked back from the curve model.

Experiments:
Assay in all cases: Viability of human cancer cell lines after 72 h of drug (GDSC screen)
GSK-650394 = compound: O=C(O)c1ccc(-c2c[nH]c3ncc(-c4ccccc4)cc23)cc1C1CCCC1 [GSK-650394]; conditions: top dose 16 µM; top dose inferred
Experimental: (§1)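 Human cancer cell lines in 384-well plates, medium with 10% serum, drug for 72 h over a 256-fold dose range (nine 2-fold or five 4-fold steps up to the top dose). Adherent lines were fixed and stained with the nucleic acid dye Syto60, suspension lines read with resazurin; signal relative to control wells, capped at 0 and 100%. One two-parameter sigmoid per drug and line, fitted in a mixed model over all curves with the slope shared within a line.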

AZD7762 = compound: NC(=O)Nc1cc(-c2cccc(F)c2)sc1C(=O)N[C@H]1CCCNC1 [AZD7762]; conditions: top dose 2 µM
Experimental: as §1

Etoposide = compound: COc1cc([C@@H]2c3cc4c(cc3[C@@H](O[C@@H]3O[C@@H]5CO[C@@H](C)O[C@H]5[C@H](O)[C@H]3O)[C@H]3COC(=O)[C@H]23)OCO4)cc(OC)c1O [Etoposide]; conditions: top dose 16 µM
Experimental: as §1

BMS-345541 = compound: Cc1ccc2nc(NCCN)c3ncc(C)n3c2c1 [BMS-345541]; conditions: top dose 16 µM
Experimental: as §1

XAV 939 = compound: Oc1nc(-c2ccc(C(F)(F)F)cc2)nc2c1CSCC2 [XAV 939]; conditions: top dose 5 µM; top dose inferred
Experimental: as §1

YK 4-279 = compound: COc1ccc(C(=O)CC2(O)C(=O)Nc3c(Cl)ccc(Cl)c32)cc1 [YK 4-279]; conditions: top dose 10 µM
Experimental: as §1

NPK76-II-72-1 = compound: COc1cc(C(=O)NC2CCN(C)CC2)ccc1Nc1ncc2c(n1)N(C1CCCC1)C(C)CC(=O)N2C [NPK76-II-72-1]; conditions: top dose 10.24 µM; top dose inferred
Experimental: as §1

Bexarotene = compound: C=C(c1ccc(C(=O)O)cc1)c1cc2c(cc1C)C(C)(C)CCC2(C)C [Bexarotene]; conditions: top dose 8 µM
Experimental: as §1

Cell Line | AUC (GSK-650394) | IC50 (GSK-650394) [µM] | AUC (AZD7762) | IC50 (AZD7762) [µM] | AUC (Etoposide) | IC50 (Etoposide) [µM] | AUC (BMS-345541) | IC50 (BMS-345541) [µM] | AUC (XAV 939) | IC50 (XAV 939) [µM] | AUC (YK 4-279) | IC50 (YK 4-279) [µM] | AUC (NPK76-II-72-1) | IC50 (NPK76-II-72-1) [µM] | AUC (Bexarotene) | IC50 (Bexarotene) [µM]
DK-MG (glioma, adherent) | 0.969 | > 16 | 0.888 | > 2 | 0.955 | > 16 | 0.972 | > 16 | 0.922 | > 5 | 0.862 | > 10 | 0.935 | > 10.2 |  | 
Daoy (medulloblastoma, adherent) |  |  | 0.708 |  | 0.328 | 0.35 | 0.886 | 14.8 | 0.967 | > 5 | 0.576 | 0.987 | 0.741 | 2.89 | 0.792 | 3.24
EW-13 (Ewing sarcoma, suspension) | 0.665 |  | 0.951 | > 2 | 0.213 | 0.129 | 0.636 | 2.47 | 0.981 | > 5 | 0.981 | > 10 | 0.591 | 1.17 |  | 
G-MEL (melanoma, adherent) | 0.681 | 3.18 | 0.48 | 0.11 | 0.754 | 5.31 | 0.881 | > 16 | 0.984 | > 5 | 0.521 | 0.714 | 0.975 | > 10.2 |  | 
GA-10 (Burkitt lymphoma, suspension) |  |  | 0.536 | 0.154 | 0.206 | 0.164 |  |  | 0.987 | > 5 | 0.77 | 3.23 |  |  |  | 
H4 (glioma, adherent) |  |  | 0.609 | 0.248 | 0.353 | 0.394 | 0.917 | > 16 | 0.983 | > 5 | 0.546 | 0.832 | 0.947 | > 10.2 | 0.961 | > 8
H2373 (mesothelioma, adherent) | 0.932 | > 16 | 0.719 | 0.622 | 0.812 | 11.4 | 0.917 | > 16 |  |  | 0.906 | > 10 | 0.976 | > 10.2 |  | 
HCC1419 (breast, adherent) | 0.982 | > 16 | 0.976 | > 2 | 0.978 | > 16 | 0.929 | > 16 | 0.98 | > 5 | 0.938 | > 10 | 0.971 | > 10.2 |  | 
HH (T-cell leukaemia, suspension) |  |  | 0.669 | 0.436 | 0.644 | 2.87 | 0.642 | 2.82 | 0.959 | > 5 | 0.727 | 3.49 | 0.613 | 1.46 | 0.703 | 2.28
Hs746T (stomach, adherent) |  |  | 0.607 | 0.274 | 0.978 | > 16 | 0.776 | 8.79 | 0.968 | > 5 | 0.799 | 6.82 | 0.905 | > 10.2 |  | 
KARPAS-231 (B-cell leukaemia, suspension) | 0.704 | 3.21 | 0.224 | 0.0252 | 0.358 | 0.447 |  |  | 0.991 | > 5 | 0.75 | 2.63 |  |  |  | 
KASUMI-1 (acute myeloid leukaemia, suspension) |  |  | 0.057 | < 0.00781 | 0.546 | 1.34 | 0.635 | 2.36 | 0.917 | > 5 | 0.723 | 2.7 |  |  |  | 
KE-37 (lymphoblastic leukaemia, suspension) |  |  | 0.341 | 0.0508 | 0.148 | 0.123 | 0.572 | 1.5 | 0.989 | > 5 | 0.667 | 1.61 | 0.478 | 0.567 | 0.957 | > 8
KP-1N (pancreas, adherent) | 0.836 | 11.3 | 0.972 | > 2 | 0.637 | 2.44 | 0.71 | 4.06 | 0.984 | > 5 | 0.766 | 3.85 |  |  |  | 
KP-2 (pancreas, adherent) | 0.957 | > 16 | 0.838 | 1.51 | 0.796 | 8.2 | 0.879 | > 16 | 0.874 | > 5 | 0.795 | 5.07 | 0.952 | > 10.2 |  | 
KP-3 (pancreas, adherent) | 0.931 | > 16 | 0.706 | 0.538 | 0.932 | > 16 | 0.888 | > 16 | 0.95 | > 5 | 0.865 | > 10 | 0.93 | > 10.2 |  | 
MG-63 (osteosarcoma, adherent) | 0.759 | 6.45 | 0.892 | > 2 | 0.512 | 1.09 | 0.984 | > 16 |  |  | 0.762 | 4.11 | 0.984 | > 10.2 |  | 
PANC-08-13 (pancreas, adherent) | 0.983 | > 16 | 0.746 | 0.792 | 0.949 | > 16 | 0.911 | > 16 | 0.926 | > 5 | 0.832 | 9 | 0.904 | > 10.2 |  | 
PCI-38 (head and neck, adherent) | 0.985 | > 16 |  |  | 0.942 | > 16 | 0.838 | 10.9 | 0.91 | > 5 | 0.623 | 1.36 | 0.883 | > 10.2 | 0.983 | > 8
PL18 (pancreas, adherent) | 0.882 | > 16 |  |  | 0.43 | 0.646 | 0.885 | > 16 | 0.942 | > 5 | 0.961 | > 10 | 0.971 | > 10.2 | 0.941 | > 8
